# Test results from PubChem BioAssay AID1030 (National Center for Advancing Translational Sciences (NCATS), 2008).
# Screen size: about 220,000 compounds; about 16,000 (7.3%) were called active. The shares of active, inactive and inconclusive entries below differ from those in the screen. Calls follow the shape of the dose curve; as a rule, active = well fitted inhibition curve with a large enough effect (not every such curve was filed as active); inconclusive = small, poorly fitted or top-dose-only effect, or another doubt; inactive = no such curve, though single readings can be large or run the other way. No potency is given beside an inconclusive call; the fits are too rough.
# Biological target: Aldehyde dehydrogenase 1A1 (Homo sapiens) (UniProt P00352)
# Sequence of UniProt P00352 (P00352 whole entry, looked up): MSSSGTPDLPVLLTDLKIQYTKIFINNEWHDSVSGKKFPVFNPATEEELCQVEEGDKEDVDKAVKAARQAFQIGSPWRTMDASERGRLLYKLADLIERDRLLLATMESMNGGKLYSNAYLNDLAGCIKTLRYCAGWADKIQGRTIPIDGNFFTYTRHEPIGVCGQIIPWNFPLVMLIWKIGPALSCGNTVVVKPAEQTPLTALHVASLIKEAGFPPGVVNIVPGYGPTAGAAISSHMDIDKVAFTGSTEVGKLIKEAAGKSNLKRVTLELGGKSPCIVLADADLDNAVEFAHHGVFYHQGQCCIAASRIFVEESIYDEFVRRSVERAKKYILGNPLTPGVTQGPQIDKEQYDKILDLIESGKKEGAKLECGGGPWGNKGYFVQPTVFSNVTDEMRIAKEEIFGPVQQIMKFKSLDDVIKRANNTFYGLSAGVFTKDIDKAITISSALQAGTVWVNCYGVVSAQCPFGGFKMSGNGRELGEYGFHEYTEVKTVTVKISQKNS
# Assay: qHTS Assay for Inhibitors of Aldehyde Dehydrogenase 1 (ALDH1A1)
# Settings: Purified ALDH1A1, NADH fluorescence, propionaldehyde substrate; series mostly up to 75.3 µM
# Potency is read from the fitted curve at half-maximal effect; tags tell the direction and shape of the fitted curve.
row,SMILES,Potency
1,CC(=O)c1cccc(NC(=O)Cc2ccc3c(c2)CCCC3)c1,active: 12.6 µM
2,COc1ccc(CCNC(=O)c2ccc(CNS(=O)(=O)c3cccc(Cl)c3)cc2)cc1OC,active: 3.55 µM
3,CCOC(=O)N1CCC(N2Cc3cccc(C(=O)NCc4ccc(C)cc4)c3C2=O)CC1,"inconclusive [inhibitor, single point]"
4,COc1ccc(/C=C/C(=O)NCCCc2ccccc2)cc1OC,"inconclusive [inhibitor, single point]"
5,C/C(CC(=O)Nc1ccc(N(C)C)cc1)=N\NC(=O)c1ccncc1,"inconclusive [inhibitor, single point]"
6,COc1ccc2[nH]cc(CCNC(=O)C3CC3)c2c1,"inconclusive [inhibitor, partial curve]"
7,O=C(CSc1nnc(-c2ccccc2)n1-c1ccc(Cl)cc1)NC1CCS(=O)(=O)C1 (stereo not drawn),"inconclusive [inhibitor, partial curve]"
8,Nc1c(C(=O)OCC2CCCO2)c2nc3ccccc3nc2n1C1CCCC1 (stereo not drawn),"inconclusive [inhibitor, partial curve]"
9,Cc1ccc(OCCCC(=O)Nc2nc3ccccc3[nH]2)cc1,inactive
10,CCCn1c(-c2ccc(F)cc2)nc2c(NC3CCN(Cc4ccccc4)C3)nc(C)nc21 (stereo not drawn),"inconclusive [inhibitor, single point]"
11,Cc1sc(NC(=O)CCCC(=O)O)c(C(N)=O)c1-c1ccccc1,"inconclusive [inhibitor, single point]"
12,O=C(Cn1nnc(-c2ccccc2F)n1)OCC(=O)c1ccccc1,"inconclusive [inhibitor, partial curve]"
13,CC(=O)N1c2ccccc2N(Cc2ccc([N+](=O)[O-])cc2)C(=O)C1(C)C,inactive
14,O=[N+]([O-])c1ccc(-c2cnc(SCc3ccccc3Cl)[nH]2)cc1,"inconclusive [inhibitor, single point]"
15,CNc1ncnc2c1ncn2[C@H]1C[C@H](O)[C@@H](CO)O1,inactive
16,N#Cc1cccc(NC(=O)Nc2cccs2)c1,inactive
17,CC(=O)Nc1ccc(-c2cc3ccccc3o2)cc1,"inconclusive [inhibitor, single point]"
18,CCC(C)OC(=O)C1=C(C)O[C@]23OC(N)=C(C#N)[C@]12C(=O)c1ccccc13 (stereo partly drawn),"inconclusive [inhibitor, single point]"
19,O=C(NCCc1ccccc1)C(=O)NC1CCCCC1,inactive
20,CC(C)N(Cc1ccccc1)C(=S)Nc1ccc(F)cc1,inactive
21,Cc1sc2nc(CN3CCOCC3)nc(NS(=O)(=O)c3ccccc3)c2c1C,"inconclusive [inhibitor, partial curve]"
22,Cc1cccn2cc(CNC(=O)CC3CCCC3)nc12,"inconclusive [inhibitor, single point]"
23,O=C(Nc1ccncc1)c1cc(F)cc(F)c1,inactive
24,C[C@H](NS(=O)(=O)c1ccccc1)C(=O)OCC(=O)NC(=O)Nc1ccc2c(c1)OCCO2,active: 14.1 µM
25,CNCC(=O)Nc1ccc(Cl)c(C(F)(F)F)c1,inactive

row,SMILES,Potency
1,Cc1ccccc1-c1ccc2ncnc(-n3ccnc3)c2c1,"inconclusive [inhibitor, single point]"
2,COn1c(=S)[nH]c2ccccc2c1=O,"inconclusive [inhibitor, single point]"
3,CCc1ccccc1NC(=O)Nc1cccn(Cc2ccc(F)cc2)c1=O,"inconclusive [inhibitor, single point]"
4,CCOC(=O)c1sc(C)c2c1NC1(CCCCC1)NC2=O,"inconclusive [inhibitor, partial curve]"
5,CCC1C/C(=C/c2cccs2)C(=O)/C(=C/c2cccs2)C1 (stereo not drawn),inactive
6,COC(=O)C1CCN(C(=O)COC(=O)c2ccc(OC)c(S(=O)(=O)N3CCCc4ccccc43)c2)CC1,active: 4.47 µM
7,S=C1NC2(CCCCC2)NN1c1ccccc1,"inconclusive [inhibitor, single point]"
8,COc1ccc(/C=C/C(=O)Nc2ccc(-n3nncc3-c3ccccc3)cc2)cc1OC,"inconclusive [inhibitor, single point]"
9,COc1ccc(O)c(C(=O)c2cnc3c(c2)CN(C)C(=O)N3)c1,"inconclusive [inhibitor, single point]"
10,CCC(=O)Nc1c(C(=O)Nc2cccc(OC)c2)oc2ccccc12,inactive
11,CCOC(=O)C1CCN(C(=O)Cc2ccc(OC)c(OC)c2)CC1,"inconclusive [inhibitor, single point]"
12,CCN(CC)S(=O)(=O)c1ccc(N2CCCCC2)c(NC(=O)c2ccncc2)c1,active: 11.2 µM
13,CC1CCCCN1c1ncnc(N)c1[N+](=O)[O-] (stereo not drawn),inactive
14,COc1ccc(-c2cnc(N)nc2-c2ccc(OCc3ccccc3)cc2O)cc1,inactive
15,Cc1cc(F)ccc1NCC(=O)Nc1ccc(Br)cc1C,"inconclusive [inhibitor, single point]"
16,CCS(=O)(=O)N1Cc2ccccc2CC1C(=O)Nc1ncc(C)s1 (stereo not drawn),inactive
17,Cc1nn(CC(O)Cn2c3c(c4ccccc42)CCN(C)C3=O)c(C)c1Br (stereo not drawn),"inconclusive [inhibitor, single point]"
18,COCCn1c(SCC(=O)N2CCc3ccccc3C2)nc2cc(Cl)ccc2c1=O,"inconclusive [inhibitor, single point]"
19,Cc1cc(NC(=O)c2ccc(N3CCCC3)c([N+](=O)[O-])c2)no1,inactive
20,CC1(C)CC(c2nc(-c3ccc([N+](=O)[O-])cc3)cs2)CCO1 (stereo not drawn),active: 15.8 µM
21,COCCN(Cc1cc2cc3c(cc2[nH]c1=O)OCO3)C(=O)c1cccs1,"inconclusive [inhibitor, single point]"
22,C1CCC(CNc2c3c(nc4nnnn24)CCCC3)CC1,"inconclusive [inhibitor, full curve]"
23,CN(C)CCCOc1cccc(Oc2ccccc2)c1,"inconclusive [inhibitor, single point]"
24,COCc1cc(=O)n2[nH]c(-c3ccsc3-n3c(C)ccc3C)cc2n1,"inconclusive [inhibitor, single point]"
25,O=[N+]([O-])c1ccc(NC(=S)NCCc2ccccc2)cc1,"inconclusive [inhibitor, single point]"

row,SMILES,Potency
1,Cc1ccc(-c2cc(C(=O)N3CCc4ccccc4C3)no2)cc1,inactive
2,CN1CCN(c2nc(-c3ccccc3)c3cc(Cl)ccc3n2)CC1,"inconclusive [inhibitor, partial curve]"
3,O=C(NNC(=O)c1cc(-c2ccc(Cl)c(Cl)c2)nc2ccccc12)Nc1ccccc1,inactive
4,CCOC(=O)C1CCN(C(=O)COc2ccc(Cl)cc2C)CC1,"inconclusive [inhibitor, partial curve]"
5,O=S1(=O)CC(O)C(N2CCCCC2)C1 (stereo not drawn),inactive
6,FC(F)(F)c1cc(-c2ccco2)nc2ncnn12,"inconclusive [inhibitor, partial curve]"
7,O=C1Nc2ccc(S(=O)(=O)N3CCCCCC3)c3cccc1c23,"inconclusive [inhibitor, single point]"
8,Cc1cccc(C(C)(C)C)c1OCCCCN1CCCC1,"inconclusive [inhibitor, single point]"
9,Cn1cccc1/C=N/NC(=O)c1cc(-c2cccs2)nc2ccccc12,"inconclusive [inhibitor, single point]"
10,CCN1CCN(C(=O)CN(Cc2ccccc2)S(C)(=O)=O)CC1,"inconclusive [inhibitor, single point]"
11,Cc1sc2ncnc(NCCCN3CCCC3=O)c2c1C,"inconclusive [inhibitor, single point]"
12,C/C(Nc1ccccc1C(F)(F)F)=C1/CCOC1=O,"inconclusive [inhibitor, partial curve]"
13,CN(C)C(=O)c1ccc(-c2cc(C(F)(F)F)n(C)n2)s1,"inconclusive [inhibitor, single point]"
14,Cc1ccc2nc(C(O)C(O)c3nc4ccc(C)cc4[nH]3)[nH]c2c1 (stereo not drawn),"inconclusive [inhibitor, partial curve]"
15,CC(=O)O[C@@H]1[C@H](OC(=O)CC(C)C)c2c(ccc3ccc(=O)oc23)OC1(C)C,inactive
16,CNC1C(O)[C@@H]2OC(O[C@@H]3C(O)C(O)C(N)C[C@H]3N)C(N)C[C@H]2O[C@H]1O[C@@H]1OC(CO)C(N)C(O)C1O (stereo partly drawn),inactive
17,COc1ccc(OC)c(-c2csc(N(Cc3ccco3)C(=O)c3ccco3)n2)c1,"inconclusive [inhibitor, single point]"
18,O=C(N1CCCC1)N1CCN(c2ncnc3c(-c4ccc(Cl)cc4)nsc23)CC1,"inconclusive [inhibitor, single point]"
19,CCc1cccc2c(N=O)c(O)[nH]c12,"inconclusive [inhibitor, single point]"
20,O=C1/C(=C\c2ccco2)NC(=S)N1c1ccccc1,inactive
21,CCOC(=O)C1=C2SCCN2C(=O)C(C#N)C1(C)C (stereo not drawn),"inconclusive [inhibitor, single point]"
22,COc1ccc(N(C)C(=O)CCS(=O)(=O)c2cccc3nonc23)cc1,"inconclusive [inhibitor, single point]"
23,CC(C)(C)C(=O)OCc1nc(-c2ccc(Cl)cc2)cs1,inactive
